In PubChem BioAssay AID1745853 (National Center for Advancing Translational Sciences (NCATS), 2022) one finds activity change, negative = inhibition data, which are given here for 14 molecules.

This is one part of the list. Further columns of the screen follow, without active or inactive calls. Bridge positions count the residues as written; N and C are the ends. Square brackets hold non-standard residues; d marks the D form. Peptide text beside a SMILES is read from it. NMeY = CN[CH](Cc1ccc(O)cc1)C(=O)O

Holding throughout (assay): Primary Screen for Target Class Profiling of Small Molecule Inhibitors of Methyltransferases
Assay [1] concerns the target Glycine N-methyltransferase (Homo sapiens) (UniProt Q14749). The conditions noted are these: purified enzyme, MTase-Glo SAH luminescence; measured here: GNMT inhibition; at 40 µM; stronger effect = lower value. The source says:
(§1) PI: Matthew D. Hall Ph.D. and Quinlin M. Hanson Ph.D.
(§2) National Center for Advancing Translational Sciences (NCATS)
(§3) National Institute of Health (NIH), Rockville, MD
(§4) Target class profiling (TCP) is a chemical biology approach amenable to investigating understudied biological targets. TCP is achieved by developing a generalizable assay platform and applying it to screen a curated set of compound libraries against representative members of a target class. Small molecule methyltransferases (SMMTase) are a subclass of methyltransferase that act on metabolites to modulate signaling pathways, metabolize xenobiotics, or balance the available methyl pool. We screened four curated libraries totaling 27,574 unique compounds against the SMMTases nicotinamide N-methyltransferase (NNMT), phenylethanolamine N-methyltransferase (PNMT), histamine N-methyltransferase (HNMT), glycine N-methyltransferase (GNMT), catechol O-methyltransferase (COMT), and guanidinoacetate N-methyltransferase (GAMT). The data generated by this TCP can be leveraged for informed tool molecule development. For example, in the associated publication we identified a chemotype of HNMT-selective inhibitors. Additionally, we identified a putative SMMTase-selective inhibitor with potential as a tool molecule for studying broader methyltransferase biology.
(§5) High-through put screening assays were developed at the National Center for Advancing Translational Science (NCATS) for the enzymes NNMT, PNMT, HNMT, GNMT, COMT, and GAMT. Enzymatic activity was measured as a function of SAM cofactor conversion using the MTase Glo kit (Promega) for all enzymes. All assays were performed in 1536-well format with substrates and SAM concentrations at KM values. Enzyme concentration and assay timing were optimized for 10-20% SAM conversion. Initial screening of 27,574 compounds was done as single-point assays using the highest compound concentration (40 uM). […] These compounds were replated in 11-point dose response and assayed against NNMT, PNMT, HNMT, GNMT, COMT, GAMT, and a counter-assay. The IC50 and efficacy (maximal response) values were determined for each dose-response curve. These values are also accounted for in the area under the curve (AUC) values.
(§6) PROTOCOL TABLE (as described by Inglese J, Shamu CE and Guy RK. 2007)
(§7) SEQUENCE No. (e.g., 1, 2, 3, etc.); […] (e.g., Cells, Incubation, Reagent, etc.); VALUE; DESCRIPTION.
(§8) 1; Reagent; 2 uL; SMMTase Enzyme (2x) in reaction buffer, columns 1- 48.
(§9) 2; Reagent; 1 uL; SAM (4x) in reaction buffer, columns 1-48.
(§10) 3; Controls; 23 nL; DMSO in column 4; sinefungin in DMSO (0 uM - 40 uM) in 7-point 1:2 dilution series (n = 2) in column 2.
(§11) 4; Compounds; 23 nL; Columns 5-48.
(§12) 5; Reagent; 1 uL; Substrate (4x) in reaction buffer, columns 2-48.
(§13) 6; Time; 20-30 min; Incubation.
(§14) 7; Reagent; 1 uL; MTase-Glo reagent (5X), columns 1-48.
(§15) 8; Time; 30 min; Incubation.
(§16) 9; Reagent; 5 uL; MTase-Glo Detection reagent, columns 1-48.
(§17) 10; Time; 30 min; Incubation, luminescence evolution.
(§18) 11; Detection; Luminescence; ViewLux uHTS Microplate Imager (PerkinElmer).
(§19) NOTES (numbers refer to Sequence numbers above)
(§20) 1, 2, 5. White Medium Binding Greiner 1536-well plates (Cat #789175-F, Greiner Bio-One, Monroe, NC); Reaction buffer: 50 mM Tris, pH 8.0, 3 mM MgCl2, 1 mM EDTA, 50 mM NaCl, 1 mM DTT, and 0.1 mg/mL BSA. Evaporation was prevented by covering assay plates with metal lids containing holes to allow gas diffusion.
(§21) 1. Six SMMTase were profiled: HNMT, GNMT, PNMT, COMT, NNMT, GAMT
(§22) 5. The corresponding substrate was used for each enzyme: HNMT - 5.3 uM Histamine; GNMT - >500 uM Glycine; PNMT - 16.2 uM Norephinephrine; COMT - 13.7 uM Norephinephrine; NNMT - 3.8 uM Nicotinamide; GAMT - 2.5 uM Guanidinoacetate.6, 8, 10. Room temperature
(§23) 6. Final reaction conditions: 10 nM COMT, 5 uM SAM, 15 uM norepinephrine, 50 mM Tris, pH 8.0, 3 mM MgCl2, 1 mM EDTA, 50 mM NaCl, 1 mM DTT, and 0.1 mg/mL BSA; refer to tables 2 and S1 for specific timing.
8. […]

For assay [2], the target named is Guanidinoacetate N-methyltransferase (Homo sapiens) (UniProt Q14353). Conditions: purified enzyme, MTase-Glo SAH luminescence; measured here: GAMT inhibition; at 40 µM; stronger effect = lower value.
From the text: as §1, §2, §3, §4, §5, §6, §7, §8, §9, §10, §11, §12, §13, §14, §15, §16, §17, §18, §19, §20, §21, §22, §23
8. […]

In assay [3] the target is Histamine N-methyltransferase (Homo sapiens) (UniProt P50135). Conditions: purified enzyme, MTase-Glo SAH luminescence; measured here: HNMT inhibition; at 40 µM; stronger effect = lower value.
From the text: as §1, §2, §3, §4, §5, §6, §7, §8, §9, §10, §11, §12, §13, §14, §15, §16, §17, §18, §19, §20, §21, §22, §23
8. […]

Assay [4] deals with Nicotinamide N-methyltransferase (Homo sapiens) (UniProt P40261). Conditions: purified enzyme, MTase-Glo SAH luminescence; measured here: NNMT inhibition; at 40 µM; stronger effect = lower value.
From the text: as §1, §2, §3, §4, §5, §6, §7, §8, §9, §10, §11, §12, §13, §14, §15, §16, §17, §18, §19, §20, §21, §22, §23
8. […]

The target in assay [5] is Phenylethanolamine N-methyltransferase (Homo sapiens) (UniProt P11086). The conditions noted are these: purified enzyme, MTase-Glo SAH luminescence; measured here: PNMT inhibition; at 40 µM; stronger effect = lower value.
From the text: as §1, §2, §3, §4, §5, §6, §7, §8, §9, §10, §11, §12, §13, §14, §15, §16, §17, §18, §19, §20, §21, §22, §23
8. […]
% is set by controls: 0 for no effect and ±100 for the full control effect.

Take `O=C(CCCn1ccc2cc(S(=O)(=O)N3CCCC3)ccc21)NCc1cccs1`: the activity change, negative = inhibition was -1.42% in assay [1]; 0% in assay [2]; -0.762% in assay [3]; 3.82% in assay [4]; 0.346% in assay [5].
For `C[C@@H]1O[C@@H](O[C@H]2[C@H](OC(=O)[C@]34CCC(C)(C)C[C@H]3C3=CCC5[C@@]6(C)C[C@H](O)[C@H](O[C@@H]7O[C@H](CO)[C@@H](O)[C@H](O)[C@H]7O)[C@](CO)(C(=O)O)C6CC[C@@]5(C)[C@]3(C)C[C@H]4O)OC[C@H](O)[C@@H]2O)[C@H](O)[C@H](O)[C@H]1O[C@@H]1OC[C@@H](O)[C@H](O[C@@H]2OC[C@](O)(CO)[C@H]2O)[C@H]1O` (stereo partly drawn), in that order: 5.8%, 0.163%, 3.42%, -13.9% and 6.64%.
For `O=C(c1ccccn1)N(Cc1cccs1)C1(C(=O)NC2CCCCC2)CCCCC1`, in that order: 4.12%, 5.99%, 9.59%, -7.94% and 4.31%.
For `COc1cc(CCCO)ccc1O[C@@H]1O[C@H](CO)[C@@H](O)[C@H](O)[C@H]1O`, in that order: 0.13%, 1.03%, 9.1%, -11.7% and 4.03%.
As to `CCC(C)C1NC(=O)C2CCCN2C(=O)C(NC(C)=O)C(C)OC(=O)C(Cc2ccc(OC)cc2)N(C)C(=O)C2CCCN2C(=O)C(C(C)C)NC1=O` (stereo not drawn) (Ac-TPIVP[NMeY](Me); ester 1-C; configuration not given here), the activity change, negative = inhibition in assay [1] was -4.01%; in assay [2], -11.9%; in assay [3], 5.54%; in assay [4], -26.4%; in assay [5], -10.8%.
On the same counts, the results for `O=C(CCc1nnc2n(Cc3ccccc3Cl)c(=O)c3ccccc3n12)N1CCN(c2ncccn2)CC1` are -3.4%, 1.43%, 10.6%, 4.71% and 1.19%.
On the same counts, the results for `CNC(=O)C1(N2CCC[C@H]2C(=O)NCCNC(C)=O)CCCCC1` are -3.92%, -6.38%, -3.44%, -9.19% and -4.69%.
For `C[C@H](Oc1cc(-n2cnc3ccc(CN4CCN(C)CC4)cc32)sc1C(N)=O)c1ccccc1C(F)(F)F`, in that order: -18%, -1.79%, -31.7%, -38.1% and -33.4%.
Turning to `CC1CCC2(NC1)OC1C(O)C3C4CCC5CC(O[C@@H]6O[C@H](CO)[C@@H](O)[C@H](O)[C@H]6O[C@@H]6O[C@@H](C)[C@H](O)[C@@H](O)[C@H]6O)CCC5(C)C4CCC3(C)C1C2C` (stereo partly drawn), the activity change, negative = inhibition in assay [1] is -3.32%; in assay [2], -9.5%; in assay [3] it was 5.52%; in assay [4], -23.4%; in assay [5], -10.1%.
As for `Cc1cc(Nc2cc(C)c(C#N)c(NC(C)CCCC(C)(C)O)n2)n[nH]1` (stereo not drawn), the activity change, negative = inhibition in assay [2] was -25.5%; in assay [4] it was -31.1%; in assay [5] it was -45.7%.
`COCc1ccc(C(=O)NCc2cc(C)cc3c(C)c(C)[nH]c23)o1`: the activity change, negative = inhibition was -16.5% in assay [1]; -10.2% in assay [2]; -10.6% in assay [3]; -10.9% in assay [4]; -9.39% in assay [5].
Consider `CCCN1C(=O)c2c(C(=O)NCCc3ccc(C)cc3)ncn2CC1(C)C(=O)NCc1ccc(F)cc1` (stereo not drawn), for which the activity change, negative = inhibition was 1.76% in assay [1]; 0.639% in assay [2]; 5.1% in assay [3]; 5.52% in assay [4]; 5.77% in assay [5].
For `C[C@H](CN(C)C)Oc1nc(Nc2cc3cccc(Cl)c3cn2)cnc1C#N`, in that order: -39.3%, 7.7%, -1.13%, -14.1% and -20.2%.
For `O=C(NCC(F)(F)F)c1cn2cc(-c3ccc(C(F)(F)F)cc3)sc2n1`, in that order: -2.37%, -7.07%, -2.02%, -8.24% and -4.41%.
